According to the supplement of paper PMC8813932:
Structures can show the parent of a compound that is named as a salt. ± gives the standard deviation of the averaged measurements. Some of the results follow. Single values are uncertain, as repeats are few or missing.

What was measured:
Experiment in all cases: log2 surviving fraction relative to plate median (drug vs vehicle, or drug+dl922-947 vs dl922-947 alone); ovarian cancer lines: OVCAR4 is platinum-sensitive while Ov4Cis resists cisplatin and Ov4Carbo carboplatin; higher = more cell survival
Details in all cases: compound concentration: 10 uM, 192 h
OVCAR4 = tested on: OVCAR4
Ov4Carbo = tested on: Ov4Carbo
Ov4Cis = tested on: Ov4Cis
[1] = dl922-947 oncolytic adenovirus co-treatment: MOI 10
[2] = dl922-947 oncolytic adenovirus co-treatment: none

Compound | log2 surviving fraction (OVCAR4; [1]) | log2 surviving fraction (OVCAR4; [2]) | log2 surviving fraction (Ov4Carbo; [1]) | log2 surviving fraction (Ov4Carbo; [2]) | log2 surviving fraction (Ov4Cis; [1]) | log2 surviving fraction (Ov4Cis; [2])
C=CCNC(N)=S [Allylthiourea] | 1.12 ± 0.55 | 1.21 ± 0.53 | 0.98 | 0.0825 | 1.12 | -0.895
Cc1cc2c(s1)Nc1ccccc1N=C2N1CCN(C)CC1 [Olanzapine (Zyprexa)] | 0.807 ± 0.41 | -0.321 ± 1.1 | -0.283 | -0.0869 | 0.316 | 0.339
O=C(O)/C=C/c1ccc(Cn2ccnc2)cc1 [Ozagrel] | 0.493 ± 0.17 | 0.309 ± 0.12 | -0.195 | -0.383 | 0.776 | 0.596
O=c1[nH]cc(F)c(=O)[nH]1 [Adrucil (Fluorouracil)] | -0.279 ± 0.28 | 0.26 ± 3.7 | -0.903 | -5.88 | -0.351 | -2.48
CC(=O)Nc1cc([As](=O)(O)O)ccc1O [Acetarsone] | 0.531 ± 0.097 | 0.968 ± 2 | 0.0677 | 0.331 | -0.0541 | 0.116
C[N+](C)(C)CCCCCCCCCC[N+](C)(C)C [Decamethonium bromide] | -0.365 ± 0.41 | -0.55 ± 0.71 | 0.213 | 0.231 | 0.0586 | -1.64
Cc1ccc2c(Cl)cc(Cl)c(O)c2n1 [Chlorquinaldol] | -4.88 ± 0.13 | -6.76 ± 1.8 | -3.93 | -8.66 | -3.42 | -5.56
Nc1ccn([C@@H]2O[C@H](CO)[C@@H](O)[C@H]2O)c(=O)n1 [Cytidine] | -0.361 ± 0.47 | 0.173 ± 1 | -1.19 | 1.02 | -0.984 | 0.446
O=c1[nH]c(=O)n([C@H]2C[C@H](O)[C@@H](CO)O2)cc1C(F)(F)F [Trifluridine (Viroptic)] | -1.19 ± 1.1 | -2.35 ± 0.33 | -1.04 | -4.95 | -1.59 | 0.427
CCC(=O)OCC(=O)[C@@]1(OC(=O)CC)[C@@H](C)C[C@H]2[C@@H]3CCC4=CC(=O)C=C[C@]4(C)[C@@]3(F)[C@@H](O)C[C@@]21C [Betamethasone Dipropionate (Diprolene)] | 0.778 ± 0.2 | -0.933 ± 1.3 | 0.713 | -0.0884 | 0.888 | -1.4
O=C(NC[C@H]1CN(c2ccc(N3CCOCC3=O)cc2)C(=O)O1)c1ccc(Cl)s1 [Rivaroxaban (Xarelto)] | 0.308 ± 0.21 | -0.136 ± 0.13 | 1.15 | -0.784 | 0.0687 | 0.794
Nc1nc2[nH]cc(CCc3ccc(C(=O)N[C@@H](CCC(=O)O)C(=O)O)cc3)c2c(=O)[nH]1 [Pemetrexed] | -0.808 ± 0.37 | -1.28 ± 4.1 | -1.38 | -3.45 | 0.944 | -0.634
COCCCC/C(=N\OCCN)c1ccc(C(F)(F)F)cc1 [Fluvoxamine maleate] | -0.946 ± 0.24 | -0.286 ± 0.22 | -1.96 | -0.807 | -2.47 | -0.58
CN1CCN(c2c(F)cc3c(=O)c(C(=O)O)cn(CCF)c3c2F)CC1 [Fleroxacin (Quinodis)] | 1.01 ± 0.63 | 0.109 ± 0.0033 | -0.00762 | 0.789 | 0.432 | -0.26
CC[C@H](C)C[C@H](C)CCCCCCCCC(=O)N[C@H]1C[C@@H](O)[C@@H](NCCN)NC(=O)[C@@H]2[C@@H](O)CCN2C(=O)[C@H]([C@H](O)CCN)NC(=O)[C@H]([C@H](O)[C@@H](O)c2ccc(O)cc2)NC(=O)[C@@H]2C[C@@H](O)CN2C(=O)[C@H]([C@@H](C)O)NC1=O [Caspofungin acetate] | 1.06 ± 0.097 | -0.235 ± 0.11 | -0.224 | 1.06 | 0.305 | 0.259
NNc1nncc2ccccc12 [Hydralazine hydrochloride] | 0.379 ± 1.1 | 1.34 ± 0.81 | 1.25 | 0.608 | 1.18 | 0.531
CCOc1nc2cccc(C(=O)OC(C)OC(=O)OC3CCCCC3)c2n1Cc1ccc(-c2ccccc2-c2nn[nH]n2)cc1 (configuration not stated) [Candesartan cilexetil (Atacand)] | -0.101 ± 0.57 | -0.25 ± 0.83 | -0.076 | -0.946 | 0.221 | -0.378
CCCCCCNC(=O)n1cc(F)c(=O)[nH]c1=O [Carmofur] | -0.603 ± 0.21 | -2.73 ± 1.6 | -0.0616 | -4.38 | -1.05 | -3.05
C=C[C@]1(C)C[C@@H](OC(=O)CSC(C)(C)CNC(=O)[C@H](N)C(C)C)[C@]2(C)[C@H](C)CC[C@]3(CCC(=O)[C@H]32)[C@@H](C)[C@@H]1O [Valnemulin HCl] | -1.75 ± 0.47 | -2.78 ± 0.57 | -2.03 | -2.06 | -2.03 | -2.29
O=C(Nc1ccccc1)OCC(CN1CCCCC1)OC(=O)Nc1ccccc1 (configuration not stated) [Diperodon HCl] | -0.325 ± 0.41 | -0.754 ± 0.3 | -1.05 | -0.838 | -0.785 | -0.409
CN(Cc1cnc2nc(N)nc(N)c2n1)c1ccc(C(=O)N[C@@H](CCC(=O)O)C(=O)O)cc1 [Abitrexate (Methotrexate)] | -1 ± 0.29 | -1.02 ± 2.8 | -2.88 | -4.72 | 0.34 | -0.135
NC(N)=Nc1nc(CSCC/C(N)=N/S(N)(=O)=O)cs1 [Famotidine (Pepcid)] | 1.14 ± 0.5 | 0.62 ± 0.35 | -0.616 | 0.709 | 0.0154 | 0.979
CCCOc1ccc2[nH]c(NC(=O)OC)nc2c1 [Oxibendazole] | -4.53 ± 1.3 | -7.74 ± 2.8 | -4.15 | -9.23 | -3.38 | -6.55
CN(C)CCC(c1ccc(Br)cc1)c1ccccn1 (configuration not stated) [Brompheniramine] | 0.349 ± 0.3 | -0.186 ± 0.58 | -0.556 | -0.774 | 0.585 | 0.828
Cc1cccc(C)c1NC(=O)CN1CCCC1=O [Nefiracetam (Translon)] | 0.657 ± 0.021 | -0.226 ± 0.0077 | -0.947 | 0.0771 | 0.487 | -0.0657
COc1nc(N)nc2c1ncn2[C@@H]1O[C@H](CO)[C@@H](O)[C@@H]1O [Nelarabine (Arranon)] | 0.124 ± 0.93 | 1.43 ± 0.12 | 0.987 | 1.26 | 0.262 | 0.516
C=C1CC[C@H](O)C/C1=C/C=C1\CCC[C@]2(C)[C@@H]([C@H](C)/C=C/[C@H](C)C(C)C)CC[C@@H]12 [Vitamin D2] | 0.509 ± 0.49 | 0.19 ± 0.47 | -0.699 | 0.733 | 0.338 | -0.156
